The whole screen tested about 310,000 compounds, of which about 2,200 (0.71%) showed an effect of 50% or more. The effect is printed as a negative number. Some of the results follow.
Biological target: human ether-à-go-go-related gene (hERG) potassium channel (human, UniProt Q12809)
Assay: primary screen, population patch clamp on CHO cells stably expressing hERG

human ether-à-go-go-related gene (hERG) potassium channel, sequence (Q12809 whole entry, looked up): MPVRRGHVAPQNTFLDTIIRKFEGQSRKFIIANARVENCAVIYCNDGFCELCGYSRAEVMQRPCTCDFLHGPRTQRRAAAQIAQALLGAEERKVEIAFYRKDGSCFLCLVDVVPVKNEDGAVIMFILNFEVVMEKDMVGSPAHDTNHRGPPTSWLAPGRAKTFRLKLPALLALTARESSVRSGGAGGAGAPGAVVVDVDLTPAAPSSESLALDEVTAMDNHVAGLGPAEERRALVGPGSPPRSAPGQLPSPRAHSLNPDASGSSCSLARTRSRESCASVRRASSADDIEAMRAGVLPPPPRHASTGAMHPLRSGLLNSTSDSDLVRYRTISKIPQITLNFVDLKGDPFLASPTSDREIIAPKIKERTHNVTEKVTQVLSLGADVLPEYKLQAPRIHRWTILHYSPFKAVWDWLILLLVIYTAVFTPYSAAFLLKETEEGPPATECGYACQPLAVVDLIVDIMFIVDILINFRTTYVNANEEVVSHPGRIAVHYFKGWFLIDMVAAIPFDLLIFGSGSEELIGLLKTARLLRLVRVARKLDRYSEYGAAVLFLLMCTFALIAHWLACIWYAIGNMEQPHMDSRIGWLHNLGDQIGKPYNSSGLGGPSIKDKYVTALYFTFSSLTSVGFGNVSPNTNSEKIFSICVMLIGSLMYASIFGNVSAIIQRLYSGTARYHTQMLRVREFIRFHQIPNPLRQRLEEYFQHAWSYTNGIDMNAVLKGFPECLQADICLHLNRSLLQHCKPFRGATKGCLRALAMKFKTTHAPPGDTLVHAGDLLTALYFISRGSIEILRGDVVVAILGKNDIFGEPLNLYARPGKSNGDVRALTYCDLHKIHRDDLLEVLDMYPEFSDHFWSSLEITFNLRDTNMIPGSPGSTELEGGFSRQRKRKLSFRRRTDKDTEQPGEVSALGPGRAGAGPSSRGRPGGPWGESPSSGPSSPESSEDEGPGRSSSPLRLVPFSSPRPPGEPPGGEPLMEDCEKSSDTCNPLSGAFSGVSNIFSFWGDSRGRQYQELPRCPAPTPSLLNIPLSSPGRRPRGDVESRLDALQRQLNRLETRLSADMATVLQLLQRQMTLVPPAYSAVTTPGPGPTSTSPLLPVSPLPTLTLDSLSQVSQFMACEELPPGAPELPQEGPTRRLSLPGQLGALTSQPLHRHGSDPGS

Row | Compound | hERG current change (%, negative = inhibition) at 1uM [%]
1 | CCOC(=O)c1ccccc1NC(=O)COC(=O)c1cc([N+](=O)[O-])ccc1N1CCOCC1 | 5.18
2 | COc1ccc(C(=O)Cc2ccc(F)cc2)c(OC)c1 | 14.2
3 | Cc1cc(NS(=O)(=O)c2ccc(NC(=O)C(C)Oc3cc(C)c(Cl)c(C)c3)cc2)no1 (stereo not drawn) | -1.07
4 | CCNC(=O)CC1C(=O)N(c2cccc(OC)c2)C(=O)N1CCOC (stereo not drawn) | 12.5
5 | CC(NCc1ccc(N(C)C)cc1)C1CC2CCC1C2.Cl (stereo not drawn) | 0.449
6 | Cc1ccc2nc(-c3cccnc3)cc(C(=O)Nc3ccc(F)cc3C)c2c1 | 12.6
7 | CC(CN1CCOCC1)OC(=O)C(C)(c1ccccc1)c1ccccc1 (stereo not drawn) | 17.3
8 | O=C(O)CCNS(=O)(=O)c1ccc(Oc2ccccc2)cc1 | 7.43
9 | CCOc1ccc2nc(NC(=O)CN3CCC(n4nnc5cc(C(F)(F)F)ccc54)CC3)sc2c1 | 5.58
10 | Nc1c(-c2ccccc2)cnn1-c1cccc(C(F)(F)F)c1 | 4.48
11 | Cc1cc(N2CCN(C)CC2)nc2ccc(NC(=O)CCC(=O)NCCCOC(C)C)cc12 | 14
12 | Cc1ccc(C(=O)Nc2cc([N+](=O)[O-])ccc2F)s1 | 4.56
13 | O=C1CC(c2ccccc2Cl)CC(O)=C1C=NCCCO (stereo not drawn) | 13.4
14 | c1ccc(C2OCC3(CO2)COC(c2ccccc2)OC3)cc1 (stereo not drawn) | 1.14
15 | CN(C)c1ccc(/C=N\S(=O)(=O)c2ccccc2)cc1 | -7.39
16 | Cc1ccc(C)c(C(=O)CSc2n[nH]c(-c3ccncc3)n2)c1 | 6.64
17 | OCC[C@@H]1C[C@@H](O)[C@H](O)[C@@]2(CCCc3ccccc3O2)O1 | 10.2
18 | Cc1cccc(N(C)C(=O)c2cc(S(=O)(=O)N3CCCC3)cn2C)c1 | 9.21
19 | CCOc1ccc(S(=O)(=O)n2cc(-c3ccccc3)c(N)n2)cc1 | 8.81
20 | O=C(NCc1ccco1)c1cc(S(=O)(=O)N2CCCCC2)ccc1Cl | -11.7
21 | CCOc1cccc(OCCOCCn2cnc3ccccc3c2=O)c1 | 5.04
22 | O=S(=O)(NCCc1ccccn1)c1cc(Cl)cc(Cl)c1O | 0.753
23 | Cc1nc2sc(C(c3ccco3)N3CCc4ccccc4C3)c(O)n2n1 (stereo not drawn) | 11

Row | Compound | hERG current change (%, negative = inhibition) at 1uM [%]
24 | CCOC(=O)Cc1nnc(Nc2cccc(O)c2)c2ccccc12 | -1.84
25 | COc1cccc(C2c3[nH]c4ccccc4c3C[C@H]3C(=O)N(c4ccccc4C(=O)N4CCCC4C(=O)O)C(=O)N23)c1 (stereo partly drawn) | 2.86
26 | O=C(CSc1nc2ccccc2c(=O)n1NC(=O)c1ccccc1)c1ccc(Cl)cc1 | 1.44
27 | COc1cccc(N(C(=O)CS(=O)CC(=O)Nc2ccc(F)cc2)C(C(=O)NC2CCCCC2)c2cccs2)c1 (stereo not drawn) | 16.5
28 | O=C(OCc1ccccc1)C1=NNC2C(=O)N(Cc3ccccc3)C(=O)C12 (stereo not drawn) | 15
29 | CCCn1c(=N)c(C(=O)NCc2ccc3c(c2)OCO3)cc2c(=O)n3cccc(C)c3nc21 | -67.3
30 | CCCCNC(=O)CCc1nc2cccnc2n1Cc1ccccc1 | -34.7
31 | CCOC(=O)Cn1c(-c2cccnc2Cl)nc2cc(C)c(C)cc21 | -1.17
32 | CC1(C(=O)Nc2nnc(SCc3ccccc3)s2)Cc2ccccc2C(=O)O1 (stereo not drawn) | -7.87
33 | CC(=O)c1ccc(N=C2SCCCN2C(=O)C2CCCC2)cc1 | 8.31
34 | CSc1nc(N)nc(SC2C=CCCC2)c1C#N (stereo not drawn) | 1.47
35 | Cc1ccc(NCc2nnc(SCC(=O)N3CCCCC3)n2CC2CCCO2)c(C)c1 (stereo not drawn) | 5.47
36 | Cc1cc(C)nc(N(C#N)Cc2ccc(Cl)cc2)n1 | 4.06
37 | COc1ccc(CCNC(=O)CCCN2C(=O)c3ccccc3C2=O)cc1OC | 9.17
38 | Cc1cc(S(=O)(=O)N2CCCC2)ccc1OCC(=O)NC1CCCC1 | 7.01
39 | COc1cc(CN2CCN(c3cc(C)ccc3C)CC2)cc([N+](=O)[O-])c1O | 10.5
40 | Cc1cc(C)n(-c2nc(O)cc(=O)[nH]2)n1 | 5.82
41 | CC#CC(=O)N1CCC(CCC(=O)N(C)Cc2ccccc2)CC1 | 6.18
42 | COc1ccccc1NC(=S)N1CCN(c2ncccn2)CC1 | 22
43 | CN(CC(=O)Nn1cnnc1)S(=O)(=O)c1cc(Cl)ccc1Cl | 4.66
44 | Cc1nnc(SCc2cccc3ccccc23)n(N)c1=O | 10.7
45 | CCOc1ccc(NC(=S)N2CCC(c3ccc(C)cc3)C2)cc1 (stereo not drawn) | 5.24
